# Values marked as one replicate rest on one cluster of the flow cell; about a third of the high ones do not repeat.
# Tested on: ATP
# Test: switch fluorescence ratio, 500 uM ATP over buffer (Cy3 cluster intensity, sum of 5 cycles each) (fold (ratio)); higher = stronger signal-on switching upon ATP binding; sequences stand for … in TCGTCGGCAGCGTCAGATGTGTATAAGAGACAGTTTTTTTTTTTTTTTTTTTTTTTTT…TC
# Details: aptamer strand: ATP DNA aptamer (quencher-CACCTGGGGGAGTATTGCGGAGGAAGG + anchor), 100 nM annealed; ATP concentration: 500 uM; one replicate
# Outline: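 Values give the fluorescence ratio for each switch-domain sequence, averaged from per-cluster ratios of summed target-cycle to summed buffer-cycle Cy3 intensity. The Cy3-labelled switching-strand clusters sat on a modified Illumina MiSeq flow-cell, were annealed to 100 nM quencher-labelled ATP aptamer, and were imaged in selection buffer, then after 15 min with 500 uM ATP at 22 °C. Five cycles ran with NaOH stripping and re-annealing between them, and clusters outside 100-1000 RFU were excluded.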
# 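Note: ATP exposure 15 min at 22 °C before imaging.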
row,Sequence,switch fluorescence ratio
1,ACCGTTGCTC,1.1
2,AGGCCTGACT,1.07
3,GTTACTTATG,1.05
4,ATATATAAGA,0.993
5,CTAGACTAGG,1.01
6,CTGTAGATAA,1.04
7,GAATAAAAGT,0.952
8,GGGTAGGTTG,0.992
9,CATAGGTCAG,1.03
10,TTCCAATGGA,0.987
11,ACAACTTTTA,1.04
12,AGGAAAGTGG,0.982
13,ACTCGACCCT,1.25
14,TATGGCTAGA,0.98
15,CTTGCCTAGT,0.942
16,CGAGTAGCCA,0.999
17,GGACCCGAGA,0.952
18,AGAATTTT,1.01
19,ATTGCGTTAG,0.97
20,GTCAAAAAAT,0.966
21,ACACATCGGG,0.995
22,GATAAAGCCT,0.995
23,GAGTCATGCT,1.02

row,Sequence,switch fluorescence ratio
1,TGCGGTGAT,1.01
2,CGGAGGAATG,1.23
3,AACGGTAGCA,1.07
4,CCTATGTCTT,1.04
5,GACCACTCAA,1.03
6,CAAAGGGTAC,1.07
7,GCGACGGACT,1.11
8,GGCGCAGCAT,0.992
9,CGTGGTCACT,1.02
10,ATTGGTAGTC,0.996
11,ACATGGCAGC,1.03
12,CCCGTTAAGG,1.05
13,AGGGACACCC,0.975
14,GAGACTGCGC,0.99
15,TGACAAACT,1.05
16,GCAGCGGATT,1
17,AAAAGCACTG,1.12
18,TTTTCGCGTT,0.973
19,TGCTTCGTCC,1.3
20,TAAAGAGCCA,0.982
21,CAATCAAGGT,0.971
22,TCTGGGCACG,1.04
23,CCACGGGTA,1.03

row,Sequence,switch fluorescence ratio
1,CGATTCCGTC,1.05
2,GCCTATGGCT,0.999
3,CCACGCTGGT,1.16
4,AAAGGATGTG,1.02
5,TCGTACTGTA,1.08
6,CTCGGCTCAT,1.15
7,CGAATGCATA,1.62
8,GCACAGGATC,1.01
9,GCATGTCATC,1.01
10,AGAGTGTTGC,0.933
11,TGGGGGCTG,1.09
12,ACACTCCAGC,1.17
13,GAAAGGGGCG,1.02
14,TTAAAGCCTG,1.08
15,TCAGTGAGAG,1.02
16,TTGTATAGCA,1.01
17,GTTTAGTCTT,1.02
18,TTACGTCAGT,1.03
19,CCGTGCAAGA,4.51
20,TTAGTTTGGT,1.02
21,ATTAGGCGAG,1
22,CAGCAGCATG,1.36
23,GATCATGTTC,1

row,Sequence,switch fluorescence ratio
1,GGACGTGGAC,1.12
2,TACGTCAGTA,1.02
3,CAGAGGGGAT,0.949
4,GACACGTAGT,1.04
5,AACCTGAATC,1.76
6,TCCTGAATAG,1.11
7,GACGCGCCAA,0.999
8,TTCAAAAATA,0.993
9,CCAGGTCCAG,1.06
10,AGTTGCACCC,0.984
11,CCCACCGGTG,2.84
12,AGACACAGGG,1.05
13,AAATGTTCTC,0.99
14,AGGACCCCGG,1
15,CGAAGCTGG,1.27
16,CTAGGAGGTA,1.02
17,GTGGCTTGAT,1
18,AATGAAAAAG,1.01
19,TTAGTTCTGT,0.991
20,GTATGGAGAC,1.03
21,TACAGAAAGG,1.02
22,TTCTTGCTAT,1.38
23,TCTACTATAA,1.03

row,Sequence,switch fluorescence ratio
1,TGAGGGCTA,1.03
2,ACCAAGGCG,1.07
3,ATTAACG,1.05
4,CTAAGAAGTT,0.968
5,ATTCGATGCA,1.09
6,ATGAGAAAT,0.974
7,TTCGACAAGC,1.16
8,TAAAGACCAG,1.04
9,GTGGGTGTGC,0.994
10,AGTAAGAGGA,1
11,AGAGATCGTA,0.979
12,TTGTGGTCAG,0.961
13,ATTGTGAACC,1.04
14,CAGCGATGGG,1.05
15,CGGTTCGATT,1.03
16,TCATCCGGTG,1.41
17,GATAATTCTC,0.982
18,CCGCAGGGGG,1.36
19,CCCCTCAA,2.6
20,TTGTCCGTCA,1.01
21,TGTCATATAG,1.04
22,GAGCGTGCAG,0.975
23,TTGATGCTAA,1.09

row,Sequence,switch fluorescence ratio
1,CCGCGGCTG,1.34
2,CTGTAATGCT,1.96
3,CGCACCGCCC,1.4
4,CTACATGGAA,1.01
5,TGTAGGAATG,0.991
6,TTAACGGCTT,1.05
7,AAGTTGCGGT,1.02
8,TCTGGTGGCA,1.03
9,GCAGGAGGTA,0.985
10,AACGTAAAA,1.02
11,AATATGGTCC,0.99
12,TTAGTAGTCT,0.918
13,CGTATGCGTA,0.966
14,GACAACATAA,1.04
15,TCCTCTGT,1.67
16,CGGATTTTTA,0.993
17,TCTTCGGCCG,1.05
18,TCTAGGGCAT,1.1
19,ATTTATTGAC,1.03
20,CATATGGAGC,0.992
21,CGTATGTGAG,0.888
22,TAGTCATTGT,1
23,TTGCGATGTC,0.982

row,Sequence,switch fluorescence ratio
1,AAAGACGTGC,0.938
2,AAAATCACGA,1.22
3,TATGTATGGG,1.02
4,CGCTCTATGG,1.03
5,CGTTTTCGAC,0.978
6,CGAAAGCGCT,1.03
7,GCTACAGCGC,1.05
8,CTATCGAGGG,0.952
9,GAGACATCAT,0.979
10,CTATTGGAGG,0.992
11,CTCCTACAAT,3.67
12,AGTCTGGCAG,1.01
13,GGAGGCTTGC,0.999
14,CGGTTTAAGG,1.03
15,ATAGGGGTGA,0.984
16,CGTTGATTGG,1.02
17,GGGACTGGTC,1.03
18,AAAAGGTAAT,0.963
19,GTTGCCGACA,1.03

# — the supplement of paper PMC10126150
